Laboratory results published in paper PMC12136788.
The list shows a part of the results.

T1: UNK ZnF1-3 (human, UniProt Q9C0B0 31-174)
T1 sequence: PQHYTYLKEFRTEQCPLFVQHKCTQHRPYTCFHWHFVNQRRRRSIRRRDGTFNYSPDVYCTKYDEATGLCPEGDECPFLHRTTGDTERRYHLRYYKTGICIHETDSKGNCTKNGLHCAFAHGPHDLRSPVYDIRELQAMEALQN

B1: chr1:174052150:174052151:+_ENSMUSG00000026553_ENSMUST00000135192|mus_mus|motif|central (ssRNA)
RNA: GGGAGUUCUACAGUCCGACGAUCCCUUCUGUCUCGUACUGGAAUUGACAGGAAGGUGGUGGGAAGGGAGGAGUAUAUACGGAGAAUCUGAUAAACAAAUGGCCAGCACAUAGUUUUCAUUGUUCCUUGGAAGGCCUAAGCUGACAACAGAGGAUUGAGCAUCA
B2: chr7:65705475:65705476:+_ENSG00000169902_ENST00000304842|hu_hu|hu_hu_hu_mus_True|98_98 (ssRNA)
RNA: GGGAGUUCUACAGUCCGACGAUCUCUAUUCGGUGAUGGCAUUCCAUGGCAUGCUGGCCCAGGUAAAACACGGUCACAGAACUAAUCACCAGACACGCCAAGAGUAAGUUCUGCUUCAGCUUCCCAACCAUCUUGAUGUGGUUACAACAGAGGAUUGAGCAUCA
B3: chr3:196311055:196311056:+_ENSG00000174013_ENST00000440469|hu_mus|motif|central (ssRNA)
RNA: GGGAGUUCUACAGUCCGACGAUCGGCUUUUGGAAGUCCUCGAAAGGCAACCCCCAGGAACUCAUACCCACGCUCAAAAGCGGAAGUCUUAUCCUCCAUGUCCAGGAUGACUCGGAUUCUCUCUCCUAUCUGAUACUUUGGUGCCAACAGAGGAUUGAGCAUCA
B4: chr9:122289238:122289239:+_ENSMUSG00000032540_ENSMUST00000156520|mus_mus|motif|central (ssRNA)
RNA: GGGAGUUCUACAGUCCGACGAUCUCCUGUCUUUUACAUCAAAACCUAACCCUUUCGUUCCAUUUCAAAAUGAAAUAUUCGGAACUCCAUCUCAAAAAUGAAGUAUUCUAAAUUGAAAUCUUUUUACAUAAAAAUACUUGGGUUCAACAGAGGAUUGAGCAUCA
B5: chr5:143665172:143665173:-_ENSMUSG00000029580_ENSMUST00000100497|perfect_dup|FALSE|FALSE (ssRNA)
RNA: GGGAGUUCUACAGUCCGACGAUCGGCUUUUAGGAUGGCAAGGGACUUCCUGUAACAACGCAUCUCAUAUUUGGAAUGACUAUUAAAAAAACAACAAUGUGCAAUCAAAGUCCUCGGCCACAUUGUGAACUUUGGGGGAUGCUCCAACAGAGGAUUGAGCAUCA
B6: chr11:46405157:46405158:+_ENSG00000110492_ENST00000395566|hu_hu|hu_hu_hu_mus_False|98_98 (ssRNA)
RNA: GGGAGUUCUACAGUCCGACGAUCCCCUCCCCACUUUGGCUGGGGAGUGUGGGCGUGAGAGGACAGGCGUGAUUGACAGAGCUGACAGGAAGACAAAAGGCACUGGUGGGUUAUAUCUUGGGCCUGUGGGAGAGGAGGGCUCCGCAACAGAGGAUUGAGCAUCA
B7: chr10:62048396:62048397:-_ENSMUSG00000020075_ENSMUST00000045866|mus_hu|FALSE|FALSE (ssRNA)
RNA: GGGAGUUCUACAGUCCGACGAUCAGCUUCCACAGCUCCCUUCUCCUCUAUCAGCUUCUCAGCUGAUUGUUUGAAGUGACUAAUGGCAGUGGGAGGCACGGAAUCCAAAAGCCUGAUGGCAUCUUUGCUGGAAGCUUUUAUUAUCAACAGAGGAUUGAGCAUCA
B8: chr6:41757443:41757444:+_ENSG00000214736_ENST00000398881|hu_mus|hu_hu_hu_mus_False|78_78 (ssRNA)
RNA: GGGAGUUCUACAGUCCGACGAUCGAACCGUGCAGAGGCAACAUCUCAGCCGACACUGUGGACUCAAGGGGCAGUGGGGGGGGGUUCAGGCAAGGAGAGGGAGUCAACUUCAGCUGCCACUCAGGUAGGAUCUUGUGGUCACAGCAACAGAGGAUUGAGCAUCA
B9: 135676400_135676520_66_CDS_ENSG00000082258_ENST00000295238|human|control|control (ssRNA)
RNA: GGGAGUUCUACAGUCCGACGAUCUUUAUCCGCCUCCACUCCGCAGCGGCGGCUCGGCGUGUUCUCCAGCUGUUCCCGAGUAAAGAACCAGCGAGAAGAAGCUCCACGGCCCGACGCCAUGACACUUCCUCCUCCGCCCGCUCCCAACAGAGGAUUGAGCAUCA
B10: chr16:45382771:45382772:-_ENSMUSG00000022661_ENSMUST00000163230|mus_mus|mus_mus_mus_hu_True|68_98 (ssRNA)
RNA: GGGAGUUCUACAGUCCGACGAUCCUGGGUCAUGUUAUGGGCCCAAUGGACAGGGAGGGCAUGCUUCUGUAAAGAUGUGAGCUAUUGUCUAAGACUAACAAUAUUUAUCUAGCUAUAAAAAUAAGUUAAAUGAAUAAGUUAAGACAACAGAGGAUUGAGCAUCA
B11: chr11:87793471:87793472:-_ENSMUSG00000020483_ENSMUST00000020775|mus_mus|mus_mus_mus_hu_False|1_48 (ssRNA)
RNA: GGGAGUUCUACAGUCCGACGAUCUGGACUUGAAAAUAAAAGAAUAAGCUGGAUCCCCCACCCCCCCACAUUGUCAACCCUACACGAGUUCUGAAUGGGCGACUCAUGAAAAUCAGCAGCUCAAACGGCAAUGACCACCCACCCCAACAGAGGAUUGAGCAUCA
B12: 8424412_8424532_2134_CDS_ENSG00000133026_ENST00000269243|human|control|control (ssRNA)
RNA: GGGAGUUCUACAGUCCGACGAUCCUUCUCGUGAUUUGGAAUGAUACAACGAACAAAGUUAGGGUUGGUGUUUCGGAGAGUUGCCAUCAGCUUGGUGAGAGAUUCUUUGUAGAGUUGCCCAACGGUACGAAACAUGCCCUUCUUCAACAGAGGAUUGAGCAUCA
B13: 56581479_56581681_1652_CDS_ENSG00000108389_ENST00000323456|human|control|control (ssRNA)
RNA: GGGAGUUCUACAGUCCGACGAUCAGAGCAGGUCCGCUUGUAGAUGUUGCGCUUCUCUCGCUCACAGGGGUUGUUGGCCAGGAAGGUGCCGUAGAGGCAGGAGUAUGUGUGUUGCACCAGUUUUACCAGGAAUGCUUCAUUAAACAACAGAGGAUUGAGCAUCA
B14: chr16:94690093:94690094:+_ENSMUSG00000040785_ENSMUST00000117648|mus_hu|mus_mus_mus_hu_True|28_48 (ssRNA)
RNA: GGGAGUUCUACAGUCCGACGAUCGGGCUGGGAUGACGGACACACAGCCUCGAUUCCAGGGGGAAAAAGUCUUAGUCGAUACUAAUUUAAAAAGUAUAAUGAUUUUUAUUACCAAAAUUACAUCUAUAAAAGAUGAAAAGCAAACAACAGAGGAUUGAGCAUCA
B15: chr4:76721835:76721836:+_ENSG00000138768_ENST00000264904|hu_mus|hu_hu_hu_mus_True|1_1 (ssRNA)
RNA: GGGAGUUCUACAGUCCGACGAUCGUUUGGCUGGGGUUUCUGAGACGCUCUGGAAUAUAACUCAUGUUUGCUAAUAAAUCCUAGUUUCUCUAUGAAAUUCUCUUUGCCAAUCCUCUUCUCUAUUAGUUGCUUUAGUUCUCUUUCCAACAGAGGAUUGAGCAUCA
B16: chr5:31223311:31223312:+_ENSMUSG00000029163_ENSMUST00000031055|mus_mus|FALSE|FALSE (ssRNA)
RNA: GGGAGUUCUACAGUCCGACGAUCUGCGGCCCCUGUAGAUAAGUUUGGUGGUCGGGUCCACCCUGUCUACACCUGUUCAAGCUCUGUGUCCUCGUAGAGCAGGGCUCCGCUGAAGAUGGUGAGCGGCUCCUCGGAGUGUGCCAGCAACAGAGGAUUGAGCAUCA
B17: chr2:5814250:5814251:-_ENSMUSG00000025816_ENSMUST00000102981|mus_hu|mus_mus_mus_hu_True|1_38 (ssRNA)
RNA: GGGAGUUCUACAGUCCGACGAUCUUCCUUUCCGGUUUCUGAAUUUCUGGUAGAACUGCACAGAAUGGUUUGAUAACUUCUAAAAAUUUGAUGCCCAUGGCGGCGGCUGGGGAGGCCCAGGGGGAAACCGCGGCCUCGCAGCUGCAACAGAGGAUUGAGCAUCA
B18: chr7:44244176:44244177:+_ENSG00000106636_ENST00000223369|hu_mus|hu_hu_hu_mus_False|48_58 (ssRNA)
RNA: GGGAGUUCUACAGUCCGACGAUCACUGUCGCUCCGGACGUAGACAUGGCAAAGAUACUCUUGUUCUUUGACAGAAGCUCUAGUGCCUUUCGAUGAGCGUUCCACAAUCAGUUGACUUGUAAAGGUCAUGAAUUCCUGCACACUCAACAGAGGAUUGAGCAUCA
B19: chr2:135777783:135777784:+_ENSMUSG00000039943_ENSMUST00000110109|mus_mus|FALSE|FALSE (ssRNA)
RNA: GGGAGUUCUACAGUCCGACGAUCGAUGGCCUGGAUUACAUCCUUAAAAAGGAUGUCUGUACACAUUGCUUUUCCGUGAGUUAUUAUCGGUUCCUGAUCUUCACCUUUUCCAUCCCAACAGUCAAGUUCAACACACCUGCAACCCAACAGAGGAUUGAGCAUCA
B20: chr18:25268621:25268622:+_ENSMUSG00000034295_ENSMUST00000037097|mus_mus|FALSE|FALSE (ssRNA)
RNA: GGGAGUUCUACAGUCCGACGAUCACUGAUGGAAGAGAGUGUGAGAAGGAACUGCUCUGCACUGCCCAACGGCACUUCCGGGUUAGCCAGCUGAGCCUCCUGGAUUUUCUGCUUCUCCUCUUCAGUUGGAAUCAUGGUCAGAAUCAACAGAGGAUUGAGCAUCA
B21: chr15:42481402:42481403:-_ENSG00000166887_ENST00000318006|hu_hu|motif|central (ssRNA)
RNA: GGGAGUUCUACAGUCCGACGAUCCUUUGAAACCGUAGUGAUUUGUUGAAAUGUCAAUAGGUCAUGGACAUAAAUGUUAUUUUCGGACAAGCUGACCAGAAUCUUAAACUGGGAAACCACAUGGAUCUGCUGAAUCUUUUUGGACAACAGAGGAUUGAGCAUCA
B22: chr15:31432613:31432614:-_ENSMUSG00000039100_ENSMUST00000090227|mus_mus|FALSE|FALSE (ssRNA)
RNA: GGGAGUUCUACAGUCCGACGAUCAUAAAUUGGUGUGAAAGCAAAUCUGUGCUUGCAUAAUUCACAGUAUUCUUUCCGACUAUGUUUCAACCACUGAACUAAGCAUUCUUGAUGAAUAAAUUUAAUACUGCCAGUACAUACACACAACAGAGGAUUGAGCAUCA

target: T1, UNK ZnF1-3; test: nsRBNS (natural sequence RNA bind-n-seq); RBNS binding buffer (assumed for nsRBNS): 25 mM Tris pH 7.5, 150 mM KCl, 3 mM MgCl2, 0.01% Triton X-100, 500 ug/ml BSA, 20 U/ml SUPERase-In, 4 C; UNK is unkempt and MSI1 is Musashi-1; names of the RNAs are library labels; protein concentration not given here; high values mean tight binding

Question: Which binding signal does the source give for B1 here?
Answer: 1.28 enrichment R

Question: Which binding signal does the source give for B2 here?
Answer: 0.571 enrichment R

Question: With B3 as the binder, how does the binding signal read?
Answer: 1.11 enrichment R

Question: For B4, which binding signal is on record?
Answer: 0.92 enrichment R

Question: How did the binding signal turn out when B5 was run?
Answer: 1.15 enrichment R

Question: B6 was tested. Which binding signal did it give?
Answer: 2.1 enrichment R

Question: B7 was tested. Which binding signal did it give?
Answer: 0.992 enrichment R

Question: With B8 as the binder, how does the binding signal read?
Answer: 1.97 enrichment R

Question: Which binding signal does the source give for B9 here?
Answer: 0.876 enrichment R

Question: For B10, which binding signal is on record?
Answer: 1.05 enrichment R

Question: How did the binding signal turn out when B11 was run?
Answer: 2.17 enrichment R

Question: Which binding signal does the source give for B12 here?
Answer: 0.816 enrichment R

Question: For B13, which binding signal is on record?
Answer: 1.09 enrichment R

Question: How did the binding signal turn out when B14 was run?
Answer: 1.17 enrichment R

Question: For B15, which binding signal is on record?
Answer: 0.49 enrichment R

Question: For B16, which binding signal is on record?
Answer: 1.2 enrichment R

Question: Which binding signal does the source give for B17 here?
Answer: 0.904 enrichment R

Question: B18 was tested. Which binding signal did it give?
Answer: 0.586 enrichment R

Question: For B19, which binding signal is on record?
Answer: 0.928 enrichment R

Question: How did the binding signal turn out when B20 was run?
Answer: 0.933 enrichment R

Question: With B21 as the binder, how does the binding signal read?
Answer: 0.708 enrichment R

Question: Which binding signal does the source give for B22 here?
Answer: 1.07 enrichment R
